# “And” between values parts separate entries of the source, which are not always exact repeats. Equal entries are not always repeated. About 16,000 (4.4%) of roughly 360,000 compounds were called active. This list was built around the results that the source calls inconclusive (neither active nor inactive); the mix of calls is not that of the screen. Calls follow the shape of the dose curve; as a rule, active = well fitted inhibition curve with a large enough effect; inconclusive = small, poorly fitted or top-dose-only effect; inactive = no such curve, though single readings can be large or run the other way. Where the call is inconclusive, the potency comes from a doubtful curve fit.
# Molecular target: Bromodomain adjacent to zinc finger domain protein 2B (Homo sapiens) (UniProt Q9UIF8)
# Chain of UniProt Q9UIF8 (Q9UIF8 whole entry, looked up, the tested form may be a part): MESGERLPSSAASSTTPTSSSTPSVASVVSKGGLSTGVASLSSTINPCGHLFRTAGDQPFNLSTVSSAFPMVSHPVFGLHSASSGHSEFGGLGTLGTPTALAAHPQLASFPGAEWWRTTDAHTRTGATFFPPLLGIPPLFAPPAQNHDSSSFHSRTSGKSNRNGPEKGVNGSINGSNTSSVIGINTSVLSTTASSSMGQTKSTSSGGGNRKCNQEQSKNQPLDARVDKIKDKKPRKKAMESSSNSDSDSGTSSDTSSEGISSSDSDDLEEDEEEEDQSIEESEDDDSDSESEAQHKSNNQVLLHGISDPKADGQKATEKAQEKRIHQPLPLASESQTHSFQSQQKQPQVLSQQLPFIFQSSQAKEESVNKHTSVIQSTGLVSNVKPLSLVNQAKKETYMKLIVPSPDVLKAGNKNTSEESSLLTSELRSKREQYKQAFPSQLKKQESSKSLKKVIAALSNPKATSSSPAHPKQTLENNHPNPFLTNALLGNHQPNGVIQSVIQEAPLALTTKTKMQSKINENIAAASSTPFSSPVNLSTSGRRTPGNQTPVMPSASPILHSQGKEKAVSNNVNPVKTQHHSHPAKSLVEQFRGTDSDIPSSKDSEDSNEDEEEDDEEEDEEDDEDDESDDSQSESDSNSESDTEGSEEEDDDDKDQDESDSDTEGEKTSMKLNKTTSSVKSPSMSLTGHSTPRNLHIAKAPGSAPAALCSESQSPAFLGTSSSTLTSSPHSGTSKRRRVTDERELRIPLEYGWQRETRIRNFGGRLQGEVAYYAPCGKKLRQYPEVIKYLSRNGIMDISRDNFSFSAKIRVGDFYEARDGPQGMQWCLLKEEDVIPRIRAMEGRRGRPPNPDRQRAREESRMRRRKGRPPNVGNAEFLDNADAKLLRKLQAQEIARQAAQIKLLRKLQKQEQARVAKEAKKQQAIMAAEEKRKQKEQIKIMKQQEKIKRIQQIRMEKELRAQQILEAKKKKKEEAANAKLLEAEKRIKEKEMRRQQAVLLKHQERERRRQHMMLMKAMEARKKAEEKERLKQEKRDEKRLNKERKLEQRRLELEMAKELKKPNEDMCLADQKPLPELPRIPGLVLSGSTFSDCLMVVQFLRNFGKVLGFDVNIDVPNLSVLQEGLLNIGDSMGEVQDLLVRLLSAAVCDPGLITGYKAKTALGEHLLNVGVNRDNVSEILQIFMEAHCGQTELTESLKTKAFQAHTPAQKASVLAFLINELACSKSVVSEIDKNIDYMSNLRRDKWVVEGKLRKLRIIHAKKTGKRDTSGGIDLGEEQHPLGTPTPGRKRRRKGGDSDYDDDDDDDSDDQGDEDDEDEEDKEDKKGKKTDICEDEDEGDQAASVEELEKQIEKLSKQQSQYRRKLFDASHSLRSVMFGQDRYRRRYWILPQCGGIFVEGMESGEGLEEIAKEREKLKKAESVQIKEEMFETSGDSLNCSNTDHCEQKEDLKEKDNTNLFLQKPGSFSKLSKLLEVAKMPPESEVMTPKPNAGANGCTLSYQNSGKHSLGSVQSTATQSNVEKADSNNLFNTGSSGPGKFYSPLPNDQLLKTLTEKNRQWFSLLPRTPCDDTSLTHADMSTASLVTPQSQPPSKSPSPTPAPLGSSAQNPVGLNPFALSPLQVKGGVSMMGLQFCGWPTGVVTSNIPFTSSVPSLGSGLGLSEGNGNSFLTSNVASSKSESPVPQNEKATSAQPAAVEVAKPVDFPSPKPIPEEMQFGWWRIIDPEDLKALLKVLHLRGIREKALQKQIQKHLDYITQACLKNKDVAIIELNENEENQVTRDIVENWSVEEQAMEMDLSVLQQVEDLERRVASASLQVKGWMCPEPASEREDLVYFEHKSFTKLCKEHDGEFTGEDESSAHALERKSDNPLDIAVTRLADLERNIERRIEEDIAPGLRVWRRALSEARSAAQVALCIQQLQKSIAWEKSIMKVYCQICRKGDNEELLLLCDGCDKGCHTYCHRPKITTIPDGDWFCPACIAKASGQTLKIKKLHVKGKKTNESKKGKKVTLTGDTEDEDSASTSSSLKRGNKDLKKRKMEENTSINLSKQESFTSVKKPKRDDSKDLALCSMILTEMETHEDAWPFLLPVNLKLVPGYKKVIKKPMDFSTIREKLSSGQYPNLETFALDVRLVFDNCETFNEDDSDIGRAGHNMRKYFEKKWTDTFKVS
# Assay: qHTS Assay for Inhibitors of BAZ2B; also: nearly all actives have a fitted effect of over 60% in size
# Conditions: AlphaScreen BAZ2B-H3K14Ac peptide displacement; activity change, negative = inhibition: at 114 µM (top of the series)
# Method in brief: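 AlphaScreen displacement of biotin-H3(5-23)K14Ac peptide (50 nM final) from BAZ2B (50 nM final) in PBS pH 7.4, 0.01% Tween-20; complex preformed 30 min RT, then compounds (top 110 uM) 30 min RT, beads 20 min dark.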
# % is scaled to controls: 0 for no effect and ±100 for the full control effect; potency is read from the fitted curve at half-maximal effect; tags tell the direction and shape of the fitted curve.
Compound,Potency,"activity change, negative = inhibition"
O=C(COc1ccccc1)Nc1nnc(S(=O)(=O)N2CCCC2)s1,"inactive and inconclusive: 3.16 µM [inhibitor, full curve, poor fit]",
COc1cc(CNCc2ccc(OC)c(OC)c2OC)cc(OC)c1,active: 50.1 µM,
Cc1ccc(OCCn2c(=S)[nH]c3ccccc32)c(C(C)C)c1,"inconclusive: 89.1 µM [inhibitor, single point]",
COc1ccccc1/C=C1\SC(=S)N(Nc2nc(C)cc(C)n2)C1=O,,inactive: 1.72%
COc1cc(OC)cc(N(C(=O)c2ccco2)C(C(=O)NC2CCCC2)c2ccc(N(C)C)cc2)c1 (configuration not stated),"inconclusive: 39.8 µM [inhibitor, partial curve]",
Cc1cc(C)c(NC(=S)NCC2CCN(C(C)c3ccccc3)C2)c(C)c1 (configuration not stated),,inactive: -11.5%
Cc1sc(NC(=O)c2ccccc2)c(C(c2ccccn2)N2CCN(CCO)CC2)c1C (configuration not stated),"inconclusive: 79.4 µM [inhibitor, single point]",
CCCCc1cc(=O)oc2cc(OCc3nn[nH]n3)c(Cl)cc12,"inconclusive: 50.1 µM [inhibitor, partial curve]",
CCCCN1C(=O)/C(=C/C=C2/CC(C)(C)CN2C)SC1=S,active: 8.91 µM,
CSc1ccc2c(c1)C(N1CCN(C)CC1)Cc1ccccc1S2 (configuration not stated),"inconclusive: 39.8 µM [inhibitor, partial curve]",
Cc1c(C(=O)OC2CCCC2)[nH]c2c1C(=O)CC(c1ccco1)C2 (configuration not stated),"inconclusive: 79.4 µM [inhibitor, single point]",
CCOC(=O)c1ccccc1NC(=O)CSc1ccc(-c2ccccn2)nn1,active: 2.82 µM,
O=C(CSc1ncccn1)N/N=C/c1cccc(OC2CSC2)c1,"inconclusive: 79.4 µM [inhibitor, partial curve]",
Cc1ccc(C(=O)CSC2=C(C#N)C(c3ccco3)C3=C(CCCC3=O)N2)cc1 (configuration not stated),"inconclusive: 89.1 µM [inhibitor, single point]",
Cc1ccc(S(=O)(=O)N2CCC(C(=O)Nc3ccccc3N3CCCC3)CC2)c(C)c1,,inactive: -4.26%
O=C(Cc1csc(NC(=O)Nc2cccc(Cl)c2)n1)NCc1cccnc1,"inconclusive: 89.1 µM [inhibitor, single point]",
O=C(NC(C(=O)N/N=C/c1cccc2ccccc12)c1n[nH]c(=O)c2ccccc12)c1ccccc1 (configuration not stated),,inactive: -35.4%
CCN(CC)Cc1nc2c(c(=O)[nH]1)C(CC)(CC)Cc1ccccc1-2,"inconclusive: 89.1 µM [inhibitor, single point]",
CSCCC1(C(=O)O)NC(c2ccccc2O)C2C(=O)N(C(C)C)C(=O)C21 (configuration not stated),"inconclusive: 31.6 µM [inhibitor, full curve]",
C=CCn1c(COc2ccccc2F)nnc1SCC(=O)NC(=O)NCc1ccco1,"inconclusive: 89.1 µM [inhibitor, single point]",
Cc1sc(NC(=O)c2ccco2)c(C(c2cccnc2)N2CCCC2)c1C (configuration not stated),"inconclusive: 89.1 µM [inhibitor, single point]",
Cc1oc2ncn(C)c(=O)c2c1C(=O)NCCCN1CCCC(C)C1 (configuration not stated),,inactive: 7.07% [at 57.1 µM]
C/C(=N/NC(=O)CSc1nc2ccccc2n1C)c1ccc(O)cc1,,inactive: -3.57%
CC1CCC(NS(=O)(=O)c2ccc(Cl)nc2)CC1 (configuration not stated),,inactive: 14.1%

Compound,Potency,"activity change, negative = inhibition"
Cc1c(C)c2ccc(OCC(=O)NC(Cc3ccc(Cl)cc3)C(=O)O)cc2oc1=O (configuration not stated),,inactive: -2.86%
CN(C)CCCNC(=O)CC(c1ccc(F)cc1)c1ccco1 (configuration not stated),,inactive: 12.2%
COc1ccc(C(=O)/C=C(\C)Nc2ccc3c(c2)OCO3)cc1,active: 50.1 µM,
O=C(c1ccncc1)N(c1ccc2oc3c(c2c1)CCCC3)S(=O)(=O)c1cccc([N+](=O)[O-])c1,"inconclusive: 31.6 µM [inhibitor, single point]",
CC(=O)Nc1ccc(S(=O)(=O)/N=C2/NC(=O)/C(=C\c3ccco3)S2)cc1,"inconclusive: 79.4 µM [inhibitor, single point]",
COc1ccc(CNCc2ccc(C)cc2)c(OC)c1,active: 56.2 µM,
NC(=O)COc1c(-c2ccc(Br)o2)oc2ccccc2c1=O,"inconclusive: 89.1 µM [inhibitor, single point]",
COc1ccccc1NS(=O)(=O)c1cc(-c2cnc(C3CC3)o2)ccc1C,"inconclusive: 31.6 µM [inhibitor, full curve]",
CCN(CC)c1ccc(N2C(=O)C3CCCCC3C2=O)cc1[N+](=O)[O-] (configuration not stated),"inconclusive: 70.8 µM [inhibitor, single point]",
Cc1c(NC(=S)N/N=C\c2ccccc2O)c(=O)n(-c2ccccc2)n1C,active: 3.16 µM,
c1ccc2c(N3CCCCC3)nc(N3CCCC3)nc2c1,,inactive: 12%
O=c1oc2cc(OCCO)ccc2c2c1CCCC2,,inactive: -7.07%
O=[N+]([O-])c1cc(C(F)(F)F)ccc1NCCCCNS(=O)(=O)c1ccc2ccccc2c1,"inconclusive: 31.6 µM [inhibitor, full curve, poor fit]",
CCOC(=O)CCC(=O)N1CCOCCOCCOCC1,"inconclusive: 89.1 µM [inhibitor, single point]",
CN1CCN(CC(O)COc2ccc(Cl)cc2)CC1 (configuration not stated),,inactive: -6.89%
Cc1ccnc(NC(=O)CCC(=O)N(CC(=O)NC2CCCCC2)CC2CCCO2)c1 (configuration not stated),"inconclusive: 89.1 µM [inhibitor, single point]",
O=C(COc1cccc2ccccc12)N/N=C/c1ccncc1,,inactive: -12.5%
Cc1cc(N2CCCC2)ccc1/C=C1/C(=O)N(C)C(=S)N1C,active: 1.58 µM,
CC1C/C(=C/c2ccncc2)C(=O)/C(=C/c2ccncc2)C1 (configuration not stated),"inconclusive: 50.1 µM [inhibitor, partial curve]",
O=[N+]([O-])c1cc(C(F)(F)F)cc([N+](=O)[O-])c1NN=C1CCCCC1,active: 11.2 µM,
COc1ccccc1CNC(=O)C1CCN(S(=O)(=O)c2ccc3c(c2)CC(C)N3C(C)=O)CC1 (configuration not stated),"inconclusive: 89.1 µM [inhibitor, single point]",
O=C(/C=C/c1ccccc1[N+](=O)[O-])N1CCN(c2ccccc2F)CC1,"inconclusive: 89.1 µM [inhibitor, single point]",
C#CCOCCOCCOCCNc1nc(N2CCN(C(=O)[C@H](CCCCN)n3cc(C(N)CO)nn3)CC2)nc(N2CCN(C(=O)[C@H](CCC(=O)O)n3cc(C(N)[C@H](C)CC)nn3)CC2)n1 (some centres not stated),active: 39.8 µM,
Cc1cc(=O)[nH]c(N/N=C2/CCCC/C2=C\c2ccccc2)n1,,inactive: 2.77%

Compound,Potency,"activity change, negative = inhibition"
CCSc1ncc(Cl)c(C(=O)Nc2nc3ccc(OC)cc3s2)n1,"inconclusive: 89.1 µM [inhibitor, single point]",
Cc1c(NC(=O)COC(=O)COc2ccc(Nc3ccccc3)cc2)c(=O)n(-c2ccccc2)n1C,"inconclusive: 50.1 µM [inhibitor, partial curve]",
CCOC(=O)C(Cc1ccccc1)C(=O)NCc1ccccc1 (configuration not stated),"inconclusive: 89.1 µM [inhibitor, single point]",
COc1cccc2c1-c1c(O)cccc1C2=O,,inactive: 1.47%
CCCCc1nc2cc(C(=O)N3CCN(c4nc(C)cnc4C)CC3)ccc2o1,,inactive: -27%
O=[N+]([O-])c1ccc(N2CCOCC2)cc1SCc1ccco1,"inconclusive: 39.8 µM [inhibitor, full curve]",
CC(C)c1ccc(-c2c(C#N)c(N)nc(SCC(=O)N3CCCCCC3)c2C#N)cc1,"inconclusive: 8.91 µM [inhibitor, single point]",
Cc1cc(N2CCCCC2)nc2ccc(NC(=O)/C=C/c3ccccc3Cl)cc12,"inconclusive: 20 µM [inhibitor, full curve]",
Cc1ccc(S(=O)(=O)CC(=O)Nc2cc(C)on2)cc1,,inactive: -6.28%
COC(=O)c1ccccc1NC(=O)CCS(=O)(=O)c1ccc(Br)cc1,active: 2 µM,
O=C(N=Nc1c(O)n(Cc2ccccc2)c2ccccc12)c1ccncc1,active: 35.5 µM,
CCOC(=O)C1=C(Cc2ccc(OC)cc2)C(=O)c2ccccc2C1=O,active: 22.4 µM,
NC(=O)C(=O)NN=C1C2CC3CC(C2)CC1C3,,inactive: -35.1%
COc1ccc(NCc2nnc(SCC(=O)c3ccc(OC)cc3)o2)cc1,"inconclusive: 79.4 µM [inhibitor, single point]",
CN(C(=O)CCN1C(=O)S/C(=C\c2ccccc2)C1=O)C1CCS(=O)(=O)C1 (configuration not stated),,inactive: -3.34%
Cc1cccc(-c2nc(Cn3c(=O)cc(-c4ccccc4)c4c(C)nn(C)c43)c(C)o2)c1,"inconclusive: 39.8 µM [inhibitor, full curve]",
O=C(/C=C/c1ccc(Br)o1)OCc1nc2ccsc2c(=O)[nH]1,active: 39.8 µM,
O=C(COC(=O)CCSc1ccc(Cl)cc1)NCc1ccco1,"inconclusive: 79.4 µM [inhibitor, single point]",
COc1cc(C#N)ccc1OC(=O)Cc1cc(OC)c(OC)c(OC)c1,,inactive: 0.907%
CCOc1ccccc1N=Nc1c(C)[nH]n(C(N)=S)c1=O,"inconclusive: 35.5 µM [inhibitor, partial curve]",
COc1ccc(/C=C2\SC(=O)N(CC(=O)NNC(=O)c3ccccc3O)C2=O)cc1OC,"inconclusive: 89.1 µM [inhibitor, single point]",
O=C(NCc1ccncc1)C(=O)N/N=C/c1ccccn1,,inactive: -24.8%
CCCC1(C(=O)OCC)NC(c2ccc(N(C)C)cc2)C2C(=O)N(c3ccc4c(c3)OCCO4)C(=O)C21 (configuration not stated),"inconclusive: 39.8 µM [inhibitor, partial curve]",
Clc1ccc2oc(-c3ccccc3)cc(=NCCCN3CCOCC3)c2c1,"inconclusive: 79.4 µM [inhibitor, single point]",

# From PubChem BioAssay AID504333 (National Center for Advancing Translational Sciences (NCATS), 2011)
